From the supplement of paper PMC11417369
This is one part of the list.

Tested on: PfHDP1 homeodomain (GST-tagged)
Experiment: gcPBM binding intensity (ln(normalized median fluorescence intensity)); higher = stronger DNA binding
Procedure, shortened: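 Each value is the highest Masliner-normalised natural-log median intensity across replicate spots of either orientation of a probe. The probes were primer-extended double-stranded 36-bp intergenic genomic sequences on an Agilent 4 × 180k array, alongside negative controls, exposed for 1 h to GST-tagged P. falciparum DNA-binding domains expressed in E. coli. Bound protein was picked up with Alexa488 anti-GST antibody and scanned at 488 nm.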

Row | Sequence | gcPBM binding intensity (ln)
1 | TAAATACTTTTATGTACACACATATAGATATATATT [CACACA_site5416] | 6.59
2 | TCATATAACACTTGATGTACAAGAATCCAAGTTGCA [XGTACX_site8758] | 6.41
3 | ATATGTATAATATATATATATATATATATATATATA [CACACA_negctrl_site623] | 9.39
4 | TATATAATAAGATATGCATGCACATGTAAAATGAAT [TGCATGCA_site499] | 10.2
5 | TTAAAATAGATAAATAGTACTCTTTCCATTATGTAA [XGTACX_site6299] | 6.18
6 | ATAATGTTTTATAATACACACATTAGATATATAAAT [CACACA_site7834] | 6.67
7 | ATATATTTTTTAAACACACACATAAATATTTGTGTA [CACACA_site2879] | 6.8
8 | CAACACTTATTGAAACGTACGCATATAGTTTCTTTT [XGTACX_site8960] | 6.26
9 | AAAGGATATGGACACACACACACATATATATATATA [CACACA_site8686] | 9.24
10 | TTTATTTATATTTATACACACAAACATAATACTACT [CACACA_site7039] | 6.82
11 | TCTAAGTATAAAGACACACAGAATAAAAAAAAATAT [CACACA_site2367] | 6.64
12 | AAAATATATATGTATGTTTATATGTTTATATATATT [XGTACX_negctrl_site337] | 6.14
13 | AAAAAAAAATTTAAGTGTACATTCCATTTTAGTTTA [XGTACX_site5286] | 6.03
14 | AAGAAGCATAAATGTACACACATATTTATATATCAA [CACACA_site6743] | 6.48
15 | TATTTAATATATTTATGTACATATTTATTTATTATT [XGTACX_site524] | 6.57
16 | TATTTTTCTTTATTGGTACACACGAAAAAAAAATTG [CACACA_site3054] | 6.33
17 | TAATATACATAATAATGTACATATTTTCATATATAC [XGTACX_site6913] | 6.32
18 | CACAAAATAAATTAAACACACAACATCAGATATGTA [CACACA_site6529] | 6.24
19 | AACTATTTTATTATATGTACTTACGAATTTATAAAA [XGTACX_site5262] | 6.53
20 | AATGTAGGTTTATTTACACACAAATATAAATATATA [CACACA_site1523] | 6.24
21 | ATAAACTGATGTGTATGTACACATGTAATAATAAAT [XGTACX_site7649] | 6.66
22 | TGTGTTGTAACAAAATGTACGAGCTTGATGTAGAAT [XGTACX_site2293] | 7.15

Row | Sequence | gcPBM binding intensity (ln)
23 | GGATAATATATTAGAACACACATATATCTGTAAAAA [CACACA_site4266] | 6.49
24 | TAATATAATATATGCACACAAATATGTATATATGTG [CACACA_site2134] | 9.77
25 | ATGTAAAACATAAAATGTACATATTATACAAACTAT [XGTACX_site5797] | 6.87
26 | TAAGTATAAATATTTACACACATTTGTTTTTTTTTA [CACACA_site7731] | 6.3
27 | AATAAAATAATAAAAGCACACAAGAATACAGACAAA [CACACA_site112] | 7.23
28 | TTGGATTTTCCATAATGTACACATAAAAGTGTTACA [XGTACX_site4544] | 6.09
29 | TTTTAAAAAATATAATATAATATAATATAAAATAAA [CACACA_negctrl_site154] | 6.19
30 | ACAGTATCTGGTAGCTGTACGGATTGTAGAGAGTAG [XGTACX_site4872] | 6.8
31 | AGAATAATAAAATGGGTGCAATAGTTTTTTTTTTTT [GTGCAC_site9823] | 9.17
32 | TTCTTATCAAGAGAAAGTACATAAAAAATTAATAAG [XGTACX_site1821] | 6.74
33 | CAAAACCTACATAACATACACACGCATATATAGAAT [CACACA_site2846] | 6.61
34 | CCAACAAAAATAAGCACACACAAATATACATACATA [CACACA_site3606] | 6.83
35 | CATGCAATATTAAACACACACTCATATAGCACAATA [CACACA_site6182] | 7.82
36 | TCTTGACGAAGTAGAAGGATATATATATAAAAAAAA [CACACA_negctrl_site641] | 6.77
37 | AGGAGGTCAGTTCACAGTACCCAGAAAACTCTACGA [XGTACX_site1992] | 5.74
38 | TCGTCTCTTCTTGTTCTGTTTTAGAAGGCTATATAT [CACACA_negctrl_site180] | 6.99
39 | TCCAGGTATTTATTCTGTACACATAAAACATTTTAT [XGTACX_site8472] | 6.44
40 | TATTAAAGGGGTTTCACACACATGTATAATTAATTT [CACACA_site200] | 6.5
41 | AATTTGTTATGTATATGTACATAAATAGATATATGA [XGTACX_site3930] | 6.55
42 | AATATGAACAGACACACACACACAAAAAAAAAAAAA [CACACA_site2012] | 6.71
43 | AACCATATTTAGATTACACACAGTTTAAATATTTTA [CACACA_site6712] | 6.36
44 | TGGTATATATTTCCTTGTACATATAATATATATTGT [XGTACX_site3961] | 6.51
